The campaign covered roughly 110,000 compounds. About 230 (0.21%) showed an effect of 50% or more. Some of the results follow.
What follows are compounds tested against DPAP1 (Plasmodium falciparum, UniProt Q8IIJ9) (assay: primary screen, percent inhibition; read by cleavage of a fluorogenic dipeptide substrate; higher = more effect of the substance).
Set-up: species or system P. falciparum D10 trophozoite lysates; single well
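Also: 30 min substrate incubation versus DMSO and 10 µM JCP410 controls.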

Chain of DPAP1 (Q8IIJ9 whole entry, looked up): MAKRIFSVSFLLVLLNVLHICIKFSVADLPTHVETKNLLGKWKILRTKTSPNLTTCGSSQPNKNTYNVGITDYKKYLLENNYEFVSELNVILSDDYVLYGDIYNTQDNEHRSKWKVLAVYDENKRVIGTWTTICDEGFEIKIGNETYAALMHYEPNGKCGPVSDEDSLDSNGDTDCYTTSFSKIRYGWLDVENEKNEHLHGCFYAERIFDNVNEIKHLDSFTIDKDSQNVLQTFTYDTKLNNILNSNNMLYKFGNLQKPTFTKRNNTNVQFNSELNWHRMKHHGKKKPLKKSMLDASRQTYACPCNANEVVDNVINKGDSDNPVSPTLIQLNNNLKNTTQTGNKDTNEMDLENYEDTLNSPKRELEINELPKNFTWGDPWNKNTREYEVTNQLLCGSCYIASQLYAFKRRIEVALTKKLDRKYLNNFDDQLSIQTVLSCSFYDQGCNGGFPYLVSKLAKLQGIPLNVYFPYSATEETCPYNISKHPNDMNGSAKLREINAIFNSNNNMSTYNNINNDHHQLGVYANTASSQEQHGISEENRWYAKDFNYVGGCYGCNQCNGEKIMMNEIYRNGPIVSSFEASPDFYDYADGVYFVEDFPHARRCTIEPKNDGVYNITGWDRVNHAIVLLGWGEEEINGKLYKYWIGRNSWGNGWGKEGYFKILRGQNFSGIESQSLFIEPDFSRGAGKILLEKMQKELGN

| SMILES | % Inhibition @ 10 uM |
| --- | --- |
| CSc1ncc(CC(=O)O)c(Sc2ccc(Cl)cc2)n1 | -9.24% |
| Cc1c(NC(=O)Cc2ccccc2)c(=O)n(-c2ccccc2)n1C | -6.44% |
| CCN(C(=O)CN1C(=O)C2CCCCC2C1=O)c1nnc(-c2ccc(Cl)cc2)s1 (stereo not drawn) | 1.63% |
| O=C1c2cccc3c(Br)ccc(c23)C(=O)N1CCO | 3.32% |
| Cc1noc2ncn(CC(=O)NCC3CCCO3)c(=O)c12 (stereo not drawn) | -4.4% |
| O=C1c2ccccc2C(Nc2cccnc2)N1Cc1ccc2c(c1)OCO2 (stereo not drawn) | -4.69% |
| O=C(COc1ccc(F)cc1)N1c2ccccc2Sc2ccccc21 | 3.64% |
| CCOC(=O)c1c(NC(=O)/C=C/C(=O)O)sc2c1CCCC2 | 0.716% |
| COc1ccc(NC(=O)CN(c2ccc(F)cc2)S(=O)(=O)c2ccc(C)cc2)cc1 | -1.61% |
| COc1ccc(OC)c(-c2[nH]nc3c2C(c2cccnc2)C(C#N)=C(N)O3)c1 (stereo not drawn) | 2.23% |
| CCc1[nH]nc2c1C(c1ccccc1)C(C#N)=C(N)O2 (stereo not drawn) | -1.64% |
| O=C(/C=C/c1ccccc1O)c1ccco1 | -0.339% |
| CC[N+]1=C(/C=C/c2ccc(OC)cc2)C(C)(C)c2ccc(C(=O)OC)cc21 | -4.78% |
| N#CC1(NC(=O)[C@H](Cc2c(F)cccc2F)NC(=O)c2ccc(-c3ccccc3Cl)cc2)CCS(=O)(=O)CC1 | -5.2% |
| CC(=O)Nc1cc2ccccc2cc1NC(C)=O | 0.658% |
| Cc1ccccc1OCC(=O)Nc1nc(-c2ccc(S(=O)(=O)N3CCOCC3)cc2)cs1 | -6.4% |
| COc1ccc(NC(=O)CN(c2cccc(Br)c2)S(C)(=O)=O)c(OC)c1 | -8.37% |
| CCOC(=O)c1[nH]c(C)c(C(=O)NCc2ccc(Cl)cc2)c1C | -1.66% |
| Clc1ccc(CN2CCc3c([nH]c4ccccc34)C2)cc1Cl | -4.94% |
| CCC(C)NC(=O)C(Cc1ccc([N+](=O)[O-])cc1)N1C(=O)c2ccccc2C1=O (stereo not drawn) | -6.11% |
| Cc1ccc2oc(=O)c3cnn(CC(=O)Nc4cccnc4)c3c2c1 | 4.74% |

| SMILES | % Inhibition @ 10 uM |
| --- | --- |
| CCN(CC)CCn1cnc2ccccc21 | 0.177% |
| Cn1c(NC(=O)Nc2cccc(C(F)(F)F)c2)cc(=O)n(C)c1=O | -0.984% |
| CC(NC(=O)CCc1nc2ccccc2[nH]1)c1ccccc1 (stereo not drawn) | 4.58% |
| CC[C@@H](C[C@H](NC(=O)OCc1ccccc1)C(=O)NCC#N)c1ccccc1 | -8.36% |
| CCOC(=O)N1CCN(C(=O)c2ccc(C(C)(C)C)cc2)CC1 | -6.68% |
| Cc1ccc(-n2c(Cc3cccn3C)nnc2SCC(=O)Nc2nnc(C)s2)cc1 | -2.19% |
| COC(=O)c1ccc(N2CCCC2=O)cc1 | -5.57% |
| COc1ccc(C(=O)N2CCN(c3ccccn3)CC2)cc1OC | -3.21% |
| O=C(CCCN1C(=O)CSc2ncccc21)N1CCN(c2ccccn2)CC1 | 1.03% |
| COc1ccc(CN2CCN(Cc3ccc(F)cc3)CC2)c(OC)c1OC | 0.931% |
| COc1ccc(C(=O)NC(c2ccc(OC)cc2)c2cc(Cl)c3cccnc3c2O)cc1 (stereo not drawn) | 0.219% |
| CCOCCCNC(=O)CNC(=S)N(Cc1ccc(C)cc1)Cc1ccco1 | -2.14% |
| COc1ccc(C2CC(=O)NC3=C2C(=O)CCC3)cc1Cl (stereo not drawn) | -1.92% |
| O=C(CNS(=O)(=O)c1ccccc1)Nc1ccc(Br)cc1 | -0.318% |
| CCOc1ccc(C(=O)N(CCCN(C)C)c2nc3ccc(C)cc3s2)cc1 | -2.95% |
| COc1cc(C(=O)N2CCN=C2c2ccccc2)cc(OC)c1OC | 1.26% |
| Fc1ccc(N2CCN(Cc3ccccc3C(F)(F)F)CC2)cc1 | -2.78% |
| O=c1oc2ccccc2c(N2CCN(Cc3ccccc3)CC2)c1CN1CCCC1 | -3.34% |
| CC(C)(C)c1cc(C(F)(F)F)n2ncnc2n1 | -2.14% |
| O=C(Nc1ccc(CN2CCOCC2)cc1)c1ccco1 | -1.04% |
| CCOC(=O)N1CCN(C(=O)CSCC(=O)Nc2nc(-c3ccc(OC)cc3)cs2)CC1 | 2.03% |

| SMILES | % Inhibition @ 10 uM |
| --- | --- |
| O=C(NCc1cccnc1)c1cc(-c2ccc(Br)cc2)n[nH]1 | -3.88% |
| Cc1nn(-c2ccccc2)c2sc(C(=O)N(C)c3ccccc3)cc12 | -7.18% |
| CC(=O)c1cccc(N2C(=O)C3C4CCC(C4)C3C2=O)c1 (stereo not drawn) | -4.88% |
| Cc1cc(C)c(CN2CCCN(Cc3cc(C)ccc3C)S2(=O)=O)c(C)c1 | 0.882% |
| COc1cccc(-c2[nH]nc3c2C(c2cc(OC)c(OC)c(OC)c2)C(C#N)=C(N)O3)c1 (stereo not drawn) | -5.63% |
| N#Cc1ccccc1C(C(N)=O)(c1ccccc1)c1ccccc1C#N | 2.26% |
| CCN(C(=O)CCCOc1ccc(Cl)cc1Cl)c1ccccc1 | -7.06% |
| CN1CCN(c2nc(-c3ccc(C(=O)NC4(C(=O)N[C@@H]5C(=O)N[C@@H]5Oc5ccccc5)CCCCC4)cc3)cs2)CC1 | -4.72% |
| c1nc(N2CCCC2)c2sc3nc(N4CCCCC4)c4c(c3c2n1)CCCC4 | -1.33% |
| Cn1c(=O)c2c(nc3n2CCS3)n(C)c1=O | -0.946% |
| CCOC(=O)c1c(-c2ccccc2)csc1NC(=O)c1cc(-c2ccc3c(c2)OCO3)on1 | 7.9% |
| COc1ccccc1/C=C1/C(=O)ON=C1C | 3.47% |
| Cc1cc(-c2ccc(C)o2)c(C#N)c(S)n1 | 39.9% |
| COc1ccc(C2=CC(c3ccc(F)c(Br)c3)n3nnnc3N2)cc1 (stereo not drawn) | 1.73% |
| Cc1cc(C)cc(NS(=O)(=O)c2ccc(NC(=O)Nc3ccccc3)cc2)c1 | 4.11% |
| CCOC(=O)N1CCC(N2Cc3cccc(C(=O)N4CC(C)CC(C)C4)c3C2=O)CC1 (stereo not drawn) | 1.23% |
| Cc1ccccc1CN1CCCC(O)C1 (stereo not drawn) | 3.84% |
| C=CCN1C(=O)N/C(=C/c2cc(Br)c(OCC(=O)O)c(OC)c2)C1=O | -8.26% |
| O=C(Cn1nnc2ccccc21)NCc1ccccc1 | 3.87% |
| CC(=O)Nc1ccc(-n2cc(C(C)=O)c(=O)[nH]c2=O)cc1 | 2.09% |
| O=C1OC(c2cccc(F)c2)=N/C1=C\c1cccc2ccccc12 | 1.25% |

Reference: publication PMC6919601, “Identification of Plasmodium dipeptidyl aminopeptidase allosteric inhibitors by high throughput screening” (PLoS ONE, 2019)
